Results: paper PMC4336329 (PLoS ONE, 2015)
Hit rate of the full screen: of about 310,000 compounds, about 2,200 (0.71%) showed an effect of 50% or more. The effect is printed as a negative number. The list shows a part of the results.

What follows are compounds tested against human ether-à-go-go-related gene (hERG) potassium channel (human, UniProt Q12809) (assay: primary screen, population patch clamp on CHO cells stably expressing hERG).
Sequence of human ether-à-go-go-related gene (hERG) potassium channel (Q12809 whole entry, looked up): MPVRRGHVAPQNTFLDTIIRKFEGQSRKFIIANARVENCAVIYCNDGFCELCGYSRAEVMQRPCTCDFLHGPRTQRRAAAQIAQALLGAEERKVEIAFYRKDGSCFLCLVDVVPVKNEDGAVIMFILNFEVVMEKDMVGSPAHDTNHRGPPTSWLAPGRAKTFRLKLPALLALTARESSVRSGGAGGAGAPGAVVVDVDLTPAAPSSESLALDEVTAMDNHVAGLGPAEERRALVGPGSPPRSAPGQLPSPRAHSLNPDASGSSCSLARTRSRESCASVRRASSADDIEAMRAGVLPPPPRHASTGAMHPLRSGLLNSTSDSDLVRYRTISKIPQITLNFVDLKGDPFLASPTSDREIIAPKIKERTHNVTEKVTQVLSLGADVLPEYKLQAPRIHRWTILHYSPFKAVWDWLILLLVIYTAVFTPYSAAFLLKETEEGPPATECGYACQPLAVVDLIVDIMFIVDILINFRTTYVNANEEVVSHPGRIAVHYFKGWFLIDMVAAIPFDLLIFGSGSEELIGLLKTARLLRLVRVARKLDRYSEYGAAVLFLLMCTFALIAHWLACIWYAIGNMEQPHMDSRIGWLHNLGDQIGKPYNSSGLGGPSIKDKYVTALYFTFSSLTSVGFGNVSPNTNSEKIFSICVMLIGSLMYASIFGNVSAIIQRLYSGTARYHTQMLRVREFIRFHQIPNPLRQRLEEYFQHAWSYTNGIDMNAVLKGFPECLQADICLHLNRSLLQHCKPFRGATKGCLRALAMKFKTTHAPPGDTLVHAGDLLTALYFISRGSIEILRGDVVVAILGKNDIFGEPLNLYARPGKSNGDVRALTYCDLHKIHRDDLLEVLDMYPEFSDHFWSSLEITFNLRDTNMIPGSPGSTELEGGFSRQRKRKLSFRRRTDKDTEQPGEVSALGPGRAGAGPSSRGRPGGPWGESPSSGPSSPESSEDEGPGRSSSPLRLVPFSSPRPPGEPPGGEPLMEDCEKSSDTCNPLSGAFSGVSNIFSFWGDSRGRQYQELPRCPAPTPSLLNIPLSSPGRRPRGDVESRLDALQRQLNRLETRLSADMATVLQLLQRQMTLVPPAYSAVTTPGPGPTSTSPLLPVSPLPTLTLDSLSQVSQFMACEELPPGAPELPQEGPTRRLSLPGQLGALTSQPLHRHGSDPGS

SMILES | hERG current change (%, negative = inhibition) at 1uM
COc1ccc(NC2=CC(c3ccccc3)N(c3ccc(OC)cc3)C2=O)cc1 (stereo not drawn) | 11.9%
Cc1ccccc1OCCC(=O)N1CCN(S(=O)(=O)c2ccc(F)cc2)CC1 | 9.86%
C=CCn1c(CCc2ccc(OC(C)C)cc2)n[nH]c1=S | 11.1%
CCOC(=O)[C@H]1[C@H]2COc3ccc(C)cc3[C@@H]2N2C(=O)c3cc(F)ccc3NC(=O)[C@@]12C | 8.13%
Cc1nc2c(C(=O)NCCc3ccccc3Cl)c[nH]n2c(=O)c1Cl | 2.12%
Cc1cc(C(=O)COC(=O)c2ccc(Br)o2)c(C)n1C | 18.4%
COc1ccc(NC(=O)CSc2nc3ncccc3[nH]2)cc1OC | 8.67%
COc1ccc(C)cc1NC(=O)CSc1nnc(-c2cc(C)[nH]n2)n1N | 23.6%
COc1ccc2c(CC(=O)OCC(=O)N3CCc4ccccc43)coc2c1 | 5.6%
CCOC(=O)c1[nH]c2cc3c(cc2c1NC(=O)CN1CC(C)CC(C)C1)OCO3 (stereo not drawn) | 8.79%
CC(c1ccccc1)c1nnc(NC(=O)Nc2ccccc2F)s1 (stereo not drawn) | 11.8%
O=C(/C=C/c1ccccc1)c1ccc2c(c1)OCCCCO2 | 15.4%
CCOC(=O)c1ccccc1NC(=O)C1CSC2(C)CCC(=O)N12 (stereo not drawn) | 7.69%
COc1cc(NC(=S)NC(=O)c2ccc(C)cc2C)ccc1NC(=O)c1cccs1 | 9.74%
Nc1c(Cl)cc(C2=NCCn3nc4ccccc4c32)cc1Cl | 13.6%
CCC(CC)NCc1ccc(OC)cc1OC | -4.09%
COc1ccccc1C(=O)N1CCN=C1SCc1cccnc1 | 10.7%
CN(CC(=O)Nc1cccc(F)c1)C(=O)CC1CCCCC1 | 4.32%
CCOc1ccc(-c2nnc(SCC(=O)NC3CC3)o2)cc1 | 6.07%
COc1cccc(N2CCN(S(=O)(=O)c3cccc4cccnc34)CC2)c1 | 9.44%
CCc1cc(=O)oc2c(C)c(OCC(=O)N3CCC[C@@H]3C(=O)O)ccc12 | 13.9%
CCC(=O)c1ccc(OCC(O)Cn2cnc3ccccc32)cc1 (stereo not drawn) | -5.18%

SMILES | hERG current change (%, negative = inhibition) at 1uM
Cc1ccccc1OCc1ccc(C(=O)N2CC(C)OC(C)C2)o1 (stereo not drawn) | 11.4%
COc1ccc(Cc2nc(C(=O)Nc3ccc(Cl)cc3)cs2)cc1 | 3.02%
COc1cc(OC)cc(C(=O)N2CCCC(c3nc(-c4ccc(C)o4)no3)C2)c1 (stereo not drawn) | 16.3%
FC(F)(F)c1cc(-c2ccco2)nc(-n2nnc3ccccc32)n1 | -4.57%
C=CCNc1ncnc2c1ncn2C1OC(CO)C(O)C1O (stereo not drawn) | 18.5%
NC(=O)CCCn1c(C(=O)c2cc(Cl)c(N)c(Cl)c2)c2ccc([N+](=O)[O-])cc2[n+]1[O-] | 3.66%
CC(=O)n1cc([C@@H]2C=C(C(=O)Nc3ccccc3)O[C@H](OCCCCO)C2)c2ccccc21 | -2.82%
COc1cc(-c2csc(C)n2)ccc1O | 12.6%
O=C(NNC(=O)C1C2C=CC(C2)C1C(=O)O)c1cc(Cl)ccc1O (stereo not drawn) | 14.2%
COc1ccc(NC(=O)CN2C(=O)C(c3ccccc3)=NC23CCCCCC3)cc1OC | 3.61%
Nc1ccccc1N=Cc1ccc(-c2cccc(Cl)c2)o1 | 10.1%
COc1ccccc1N1CCN(C(=O)Oc2ccccc2)CC1 | 6.96%
COc1ccc([N+](=O)[O-])cc1NC(=O)C(C)OC(=O)c1ccccc1C(=O)c1ccc(Cl)cc1 (stereo not drawn) | 9.96%
O=C(COc1ccccc1)NNC(=O)c1ccc(Cl)cc1 | 7.74%
CC(=O)n1cc(/C=C2/N=C(c3ccccc3)OC2=O)c2ccccc21 | 9.73%
COc1ccc(O)c(C(=O)c2cnc3c(c2)CN(C)C(=O)N3)c1 | 11.3%
CC1(C(=O)OCC(=O)NNC(=O)COc2ccc(Cl)cc2)CC1(Cl)Cl (stereo not drawn) | 8.15%
NS(=O)(=O)c1ccc(CCNC(=O)CSc2ccc(Cl)cc2)cc1 | 5.9%
CC(C)Cn1c(N)c(C(=O)COC(=O)c2ccc(F)cc2)c(=O)n(C)c1=O | 2.75%
Cc1cccc(C)c1NC(=O)c1ccc([N+](=O)[O-])s1 | 5.27%
O=C(NC1CCCc2ccccc21)c1cc(S(=O)(=O)N2CCOCC2)ccc1F (stereo not drawn) | 5.39%
Cn1nc(Cc2n[nH]c(=S)n2C)c2ccccc2c1=O | 13.9%

SMILES | hERG current change (%, negative = inhibition) at 1uM
COc1ccc(-c2c([C@H]3[C@H]4C=CC[C@@H](C)[C@@H]4C(=O)N3Cc3ccccc3)ccc3ccccc23)cc1 | 18.3%
COc1ccc(CN2CCN(C(=O)COc3ccc4ccccc4c3)CC2)c(OC)c1 | 9.87%
COC(=O)CN(c1cc([N+](=O)[O-])ccc1OC)S(C)(=O)=O | 11.9%
Cc1ccccc1OC(C)C(=O)Nc1ccc2c(c1)OCCO2 (stereo not drawn) | -9.77%
CC(=O)c1ccc(N2CCN(C(=O)[C@H](C)NC(=O)c3ccccc3Cl)CC2)cc1 | 4.45%
Cc1cc(N2CCCc3ccccc32)n2ncnc2n1 | 11.9%
COc1ccccc1CNC(=O)COC(=O)Cn1cnc2ccccc21 | 12.5%
CCOC(=O)C1CCCN(C(=O)C2CCN(S(=O)(=O)c3ccc4ccccc4c3)CC2)C1 (stereo not drawn) | 15.6%
CCOC(=O)C1CCCN(CC(=O)c2c[nH]c3ccc(C)cc23)C1 (stereo not drawn) | 2.76%
CC(=O)Nc1cccc(NC(=O)C2CCCN2C(=O)Nc2ccccc2C)c1 (stereo not drawn) | 5.13%
COc1ccccc1N1CCN(C2CCCN(Cc3ccccc3OCCO)C2)CC1 (stereo not drawn) | 8.21%
Cn1cc(SCC(=O)NCc2ccc3c(c2)OCO3)c2ccccc21 | 5.12%
CCOC(=O)c1c(NC(=O)CSc2ncccn2)sc(C(=O)NC)c1C | -2.96%
O=C(CCN1C(=O)[C@H]2CC=CC[C@H]2C1=O)NCc1nc(-c2ccccc2)no1 | 9.55%
CC(=O)c1cccc(OCCN2C(=O)NC(C)(C)C2=O)c1 | 5.11%
COC(=O)c1ccc(N2CCN(S(=O)(=O)c3ccc4ccccc4c3)CC2)c([N+](=O)[O-])c1 | 18.7%
N/C(Cc1cccs1)=N\OC(=O)COc1ccc(Br)cc1Cl | 8.6%
CN(C(=S)NC(=O)/C=C/c1ccc(F)cc1)C1CCCCC1 | 12.5%
CCCC1CCC(c2ccc(C(N)=O)cc2)CC1 (stereo not drawn) | 5.21%
O=C(Nc1cccnc1Cl)c1cc(-c2ccco2)on1 | 17.4%
CC1=NNC(=O)c2ccccc2O1 | 22.7%
Cc1nc2ccc(C(=O)N/N=C/c3cc([N+](=O)[O-])ccc3O)cc2[nH]1 | 10.1%

SMILES | hERG current change (%, negative = inhibition) at 1uM
O=C(CSc1nc2ccccc2c(=O)[nH]1)N1CCCCC1 | 10.4%
CC(C)C(NS(=O)(=O)c1ccccc1F)C(=O)N1CCc2ccccc2C1 (stereo not drawn) | 18.9%
O=C(NCC(c1cccs1)N1CCOCC1)c1cc(Cl)ccc1[N+](=O)[O-] (stereo not drawn) | 0.8%
O=C(NCc1nc2ccccc2[nH]1)C1=C[C@@H](c2ccc(C(F)(F)F)cc2)C[C@@H](OCc2ccc(CO)cc2)O1 | 16.6%
O=C(NNC(=O)c1cccc(-n2cccc2)c1)c1ccc(F)cc1 | 14.8%
COc1ccc(Cl)cc1C(=O)Nn1c(-c2cccs2)nc2ccccc2c1=O | -1.42%
Cc1nn(-c2ccccc2)c2c1P(=O)(O)/C(=C1\N(C)c3ccccc3C1(C)C)C=N2 | 7.34%
N#CC1=C(N)SC(N)=C(C#N)C1Cc1ccccc1 | 9.79%
COc1ccccc1N(CC(=O)NCCSc1ccc(Cl)cc1)S(C)(=O)=O | 4.09%
Cc1cc(C)c2c3c(sc2n1)C1(CCSCC1)C(C#N)=C(N)O3 | 11.2%
O=C1CCCN1c1cc(Cl)ccc1Cl | 9.09%
CCC(C)NC(=O)C1CCN(c2nc(C)cc(C)n2)CC1 (stereo not drawn) | 6.17%
O=S(=O)(Nc1cccc(-c2ccc3nncn3n2)c1)c1cccs1 | 6.8%
Cc1cc(OCC(=O)NCCCN2CCOCC2)c2c(C)cc(=O)oc2c1 | 6.42%
CC(O)C(NS(=O)(=O)c1ccc(Cl)cc1)C(=O)OCC(=O)c1c[nH]c2ccccc12 (stereo not drawn) | 5.23%
CCOc1cc2[nH]c(=O)n(CCCCCC(=O)NC3CCCC3)c(=O)c2cc1OCC | 7.43%
CCOc1ccc2[nH]c(=O)c(CN(CCO)C(=O)c3ccc(F)cc3)cc2c1 | 9.74%
COCCOC(=O)C1=C(C)Nc2ncnn2C1c1ccccc1 (stereo not drawn) | 11.3%
COc1ccc(NC(=O)c2cccc(N3C(=O)C4C5C=CC(C5)C4C3=O)c2)cc1 (stereo not drawn) | 15.2%
COc1ccc(OC)c(CN2CCN(C(=O)c3cccs3)CC2)c1.O=C(O)C(=O)O | 1.38%
CCOc1ccc(N2CC(C(=O)Nc3ccc(OC)c(S(=O)(=O)N4CCCCC4)c3)CC2=O)cc1 (stereo not drawn) | 8.7%
